This is an account of results in ChEMBL document CHEMBL5606458, “ASAP - ZIKV NS2B-NS3 protease fluorescence single point” (2024).

In all, about 2,700 compounds went through this assay and about 160 (5.9%) showed an effect of 50% or more. This is one part of the list. Where a SMILES comes first, the peptide text is derived from it. The star is where a group is joined. pNA = O=[N+]([O-])c1ccc(N*)cc1; Boc = CC(C)(C)OC(=O)*

In the experiment the target is Nonstructural protein 3 (Zika virus) (UniProt A0A024AXB9).
[1] abbreviates: PRVABC59, Concentration 15.0 uM, Number of replicates 1.0.
[2] abbreviates: PRVABC59, Concentration 50.0 uM, Number of replicates 1.0.

UniProt A0A024AXB9, sequence (A0A024AXB9 as listed by the source): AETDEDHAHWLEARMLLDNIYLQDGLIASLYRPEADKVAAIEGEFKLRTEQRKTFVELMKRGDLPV

For `CCc1nc([C@@H](C)NC(=O)c2ccc(O)c(NC(=O)c3ccncc3F)c2C)n[nH]1`, the inhibition – broadly, the relative decrease from the control value, in per cent – (PRVABC59, Concentration 49.5 uM, Number of replicates 2.0, Standard deviation 3.1408649159179345 %) is -4.85%; the inhibition (PRVABC59, Concentration 99.01 uM, Number of replicates 2.0, Standard deviation 2.840728525421065 %) is -3.05%; the inhibition (PRVABC59, Concentration 198.0 uM, Number of replicates 2.0, Standard deviation 1.857887141784961 %) was 1.32%.

Consider `Cc1cc(CO)c2cccc(CC(=O)NCc3sccc3C)c2n1`, for which the inhibition (PRVABC59, Concentration 49.95 uM, Number of replicates 2.0, Standard deviation 0.585311155534554 %) came to 22.6% and the inhibition (PRVABC59, Concentration 99.9 uM, Number of replicates 2.0, Standard deviation 0.3155591867724611 %) was found to be 30.3%.

Regarding `CSCC[C@H](NC(=O)OC(C)(C)C)C(=O)N1CCC[C@H]1C(=O)Nc1ccc([N+](=O)[O-])cc1` (Boc-Met-Pro-pNA), the inhibition (PRVABC59, Concentration 49.5 uM, Number of replicates 2.0, Standard deviation 2.4553944722955454 %) amounted to 8.47%; the inhibition (PRVABC59, Concentration 99.01 uM, Number of replicates 2.0, Standard deviation 0.9634499829759906 %) was determined as 16.7%; the inhibition (PRVABC59, Concentration 198.0 uM, Number of replicates 2.0, Standard deviation 1.6135445535944577 %) is 30.2%.

As to `O=C(Nc1ccc(Cl)c(Cl)c1F)c1cc(Cl)ccc1NS(=O)(=O)c1ccc(Oc2ccccc2Cl)cc1`, the inhibition under setting [1] was 25.6%.

As to `CN1CCN(c2ccc(NC(=O)C3CCN(c4ccc(C=O)cc4)CC3)cc2F)CC1`, the inhibition under setting [2] turned out to be 17.3%.

For `O=C(Nc1ccc(Br)c([N+](=O)[O-])c1)c1cc(Cl)ccc1NS(=O)(=O)c1ccc(Oc2ccccc2Cl)cc1`, the inhibition under setting [1] stood at 31.6%.

For the compound `O=C(c1cc(Cl)ccc1NS(=O)(=O)c1ccc(Oc2ccccc2Cl)cc1)N1CCC[C@H](c2ccccc2)C1`, under setting [1], the inhibition is 21.9%.

Turning to `CNC(=O)c1cc(Cl)ccc1NS(=O)(=O)c1ccc(C(=O)N(C)C)cc1`, the inhibition reads like this: (PRVABC59, Concentration 49.5 uM, Number of replicates 2.0, Standard deviation 1.913623666524201 %) -2.08%; (PRVABC59, Concentration 99.01 uM, Number of replicates 2.0, Standard deviation 2.2789140693439403 %) -0.135%; (PRVABC59, Concentration 198.0 uM, Number of replicates 2.0, Standard deviation 1.38229221366052 %) 2.97%.

Take `O=Cc1ccc(N2CCC(C(=O)Nc3n[nH]c4ccc(Br)cc34)CC2)cc1`: the inhibition under setting [2] stood at 10.5%.

For `O=Cc1ccc(N2CCC(C(=O)N(Cc3ccc([N+](=O)[O-])cc3)C3CC3)CC2)cc1`, under setting [2], the inhibition was determined as 24%.

Turning to `O=C(Nc1cccc2c(=O)[nH][nH]c(=O)c12)c1cc(Cl)ccc1NS(=O)(=O)c1ccc(Oc2ccccc2Cl)cc1`, the inhibition under setting [1] was -9.44%.

On to `O=Cc1ccc(N2CCC(C(=O)N3CC=C(c4ccccc4)CC3)CC2)cc1`, for which the inhibition under setting [2] is 4.9%.

Consider `Cc1cc(C(=O)N2CCN(C(=O)c3cc(C(C)(F)F)n[nH]3)CC2)cc2nn[nH]c12`, for which the inhibition is 2.52% (PRVABC59, Concentration 49.5 uM, Number of replicates 2.0, Standard deviation 3.4651697001969515 %); 2.99% (PRVABC59, Concentration 99.01 uM, Number of replicates 2.0, Standard deviation 1.9800968752054615 %); 4.49% (PRVABC59, Concentration 198.0 uM, Number of replicates 2.0, Standard deviation 0.03838970984723889 %).

On to `Cc1nnc([C@H](C)n2cc(C3CCNCC3)c(C)n2)o1`, for which the inhibition was 2.86% (PRVABC59, Concentration 49.5 uM, Number of replicates 2.0, Standard deviation 2.1226892731992764 %); 1.28% (PRVABC59, Concentration 99.01 uM, Number of replicates 2.0, Standard deviation 0.905054217811843 %); -2.8% (PRVABC59, Concentration 198.0 uM, Number of replicates 2.0, Standard deviation 2.9276356642253165 %).

As for `CCCOc1ccc([C@H](C)NC(=O)c2cc(Cl)ccc2NS(=O)(=O)c2ccc(Oc3ccccc3Cl)cc2)cc1`, the inhibition under setting [1] came to 24.9%.

Take `O=C(O)c1cnn([C@H]2CCCN(C(=O)c3c[nH]c4ccccc34)C2)c1`: the inhibition is -0.332% (PRVABC59, Concentration 49.5 uM, Number of replicates 2.0, Standard deviation 1.3083534915556765 %); 0.299% (PRVABC59, Concentration 99.01 uM, Number of replicates 2.0, Standard deviation 2.0130508217065533 %); 2.52% (PRVABC59, Concentration 198.0 uM, Number of replicates 2.0, Standard deviation 2.766973268547789 %).

For `O=Cc1ccc(N2CCC(C(=O)NC3(c4cccc(F)c4)CC3)CC2)cc1`, the inhibition (PRVABC59, Concentration 10.0 uM, Number of replicates 1.0) turned out to be 22.2%.

As for `CC(C)[C@H](CNC(=O)C1CCN(c2ccc(C=O)cc2)CC1)N1CCCC1`, under setting [2], the inhibition stood at 27.7%.

For the compound `Cc1cc(CO)c2cccc(Cc3cccc(NC(=O)CN4CCOCC4)c3)c2n1`, the inhibition reads like this: (PRVABC59, Concentration 49.95 uM, Number of replicates 2.0, Standard deviation 1.6911147851442576 %) -1.23%; (PRVABC59, Concentration 99.9 uM, Number of replicates 2.0, Standard deviation 0.24588909748480092 %) 3.02%.

`O=Cc1ccc(N2CCC(C(=O)N3CCN(Cc4ccc(OC(F)(F)F)cc4)CC3)CC2)cc1`: under setting [2], the inhibition came out at 22.1%.

On to `CN1CCN(CCCNC(=O)c2cc(Cl)ccc2NS(=O)(=O)c2ccc(Oc3ccccc3Cl)cc2)CC1`, for which, under setting [1], the inhibition turned out to be 8.04%.

For `Cc1cc(CO)c2cccc(C[C@H](NC(=O)CN3CCOCC3)C(=O)O)c2n1`, the inhibition runs as follows: (PRVABC59, Concentration 49.95 uM, Number of replicates 2.0, Standard deviation 2.0975845871774594 %) -5.11%; (PRVABC59, Concentration 99.9 uM, Number of replicates 2.0, Standard deviation 1.4402075468984918 %) -0.323%.

In the case of `O=C(NCCc1c[nH]nc1O)[C@]1(c2ccc(F)cc2)CCCNC1`, the inhibition was -0.117% (PRVABC59, Concentration 49.5 uM, Number of replicates 2.0, Standard deviation 1.0104116453139207 %); -0.456% (PRVABC59, Concentration 99.01 uM, Number of replicates 2.0, Standard deviation 1.4534382434361832 %); -1.21% (PRVABC59, Concentration 198.0 uM, Number of replicates 2.0, Standard deviation 0.8756900869858181 %).

On to `Nc1cccc2nccnc12`, for which, for the setting “PRVABC59, Concentration 99.9 uM, Number of replicates 2.0, Standard deviation 9.69887366176999 %”, the inhibition is -7.97%.

Regarding `O=Cc1ccc(N2CCC(C(=O)Nc3c(F)cc(F)cc3[N+](=O)[O-])CC2)cc1`, the inhibition under setting [2] was determined as 25.8%.

In the case of `O=C(NCc1ccc(-c2ccccn2)cc1)c1cc(Cl)ccc1NS(=O)(=O)c1ccc(Oc2ccccc2Cl)cc1`, the inhibition under setting [1] is 31.7%.

Turning to `Cc1cc(CO)c2cccc(Cc3cccc(NC(=O)Cc4cccc(CN)c4)c3)c2n1`, the inhibition runs as follows: (PRVABC59, Concentration 49.95 uM, Number of replicates 2.0, Standard deviation 2.5092035223767977 %) 6.18%; (PRVABC59, Concentration 99.9 uM, Number of replicates 2.0, Standard deviation 2.4583076624646183 %) 22.9%.

For `O=C(c1cc(Cl)ccc1NS(=O)(=O)c1ccc(Oc2ccccc2Cl)cc1)N1CCN(Cc2ccc(OC(F)(F)F)cc2)CC1`, the inhibition under setting [1] stood at 22.8%.

In the case of `CCCCCC(=O)N[C@H](C(=O)N1CCCCC1)c1ccc(OCc2ccccc2)cc1`, the inhibition is, setting by setting: (PRVABC59, Concentration 49.5 uM, Number of replicates 2.0, Standard deviation 4.155813079418174 %) -3.48%; (PRVABC59, Concentration 99.01 uM, Number of replicates 2.0, Standard deviation 6.423147460184428 %) -4.58%; (PRVABC59, Concentration 198.0 uM, Number of replicates 2.0, Standard deviation 4.695102110161803 %) -6.32%.

Consider `CC(C)(C)N(Cc1ccc(Br)cc1)C(=O)c1cc(Cl)ccc1NS(=O)(=O)c1ccc(Oc2ccccc2Cl)cc1`, for which the inhibition under setting [1] turned out to be 25.4%.

For `C[Si](C)(C)CN(Cc1ccccc1)C(=O)C1CCN(c2ccc(C=O)cc2)CC1`, under setting [2], the inhibition is 20.2%.

Turning to `Cn1cc(NC(=O)c2ccccc2C(F)(F)F)c(-c2cnn(CCF)c2)n1`, the inhibition reads like this: (PRVABC59, Concentration 49.5 uM, Number of replicates 2.0, Standard deviation 2.4876894106733207 %) -7.64%; (PRVABC59, Concentration 99.01 uM, Number of replicates 2.0, Standard deviation 1.4033120271246613 %) -7.93%; (PRVABC59, Concentration 198.0 uM, Number of replicates 2.0, Standard deviation 1.5328185030054198 %) -7.48%.

`Cn1c(C(=O)Nc2cc(Cl)cc(C(=O)NC(C)(C)CO)c2)cccc1=O`: the inhibition is -1.68% (PRVABC59, Concentration 49.5 uM, Number of replicates 2.0, Standard deviation 1.7250008408103041 %); -2.34% (PRVABC59, Concentration 99.01 uM, Number of replicates 2.0, Standard deviation 1.6306488405382398 %); -1.7% (PRVABC59, Concentration 198.0 uM, Number of replicates 2.0, Standard deviation 2.3177776151355625 %).

Consider `Cn1ccnc1[C@@H](O)C1CCN(C(=O)c2cc(Cl)ccc2NS(=O)(=O)c2ccc(Oc3ccccc3Cl)cc2)CC1`, for which the inhibition under setting [1] stood at 4.74%.

In the case of `Cc1cc(CO)c2cccc(Cc3ccccc3NC(=O)Cc3c[nH]c4ccccc34)c2n1`, the inhibition (PRVABC59, Concentration 49.95 uM, Number of replicates 2.0, Standard deviation 1.7355748528989599 %) is 0.821% and the inhibition (PRVABC59, Concentration 99.9 uM, Number of replicates 2.0, Standard deviation 0.9670354996725093 %) amounted to 10.8%.

As for `CN(CCCCc1ccccc1)C(=O)C1CCN(c2ccc(C=O)cc2)CC1`, the inhibition under setting [2] worked out at 25.1%.

Regarding `c1ccc(-n2cc(CN3CCC(c4c[nH]c5cccnc45)CC3)nn2)cc1`, the inhibition runs as follows: (PRVABC59, Concentration 49.5 uM, Number of replicates 2.0, Standard deviation 3.7237300369523103 %) -4.19%; (PRVABC59, Concentration 99.01 uM, Number of replicates 2.0, Standard deviation 1.918913643921349 %) -5.6%; (PRVABC59, Concentration 198.0 uM, Number of replicates 2.0, Standard deviation 1.5169790429854497 %) -5.11%.

As to `CC(C)C(=O)N1CCN(C(=O)C2CCN(c3ccc(C=O)cc3)CC2)CC1`, the inhibition under setting [2] came out at 19.4%.

For `O=C(NCCc1ccccc1C(F)(F)F)c1cc(Cl)ccc1NS(=O)(=O)c1ccc(Oc2ccccc2Cl)cc1`, under setting [1], the inhibition was found to be 28.5%.

Regarding `O=Cc1ccc(N2CCC(C(=O)N3CCCN(c4ccc(C(F)(F)F)cn4)CC3)CC2)cc1`, the inhibition under setting [2] is 19.9%.
